Measurements reported in the antibiotic and cytotoxicity screens of Wong et al. (2023).
Some of the results follow.

Tested on: HepG2
Assay: cytotoxicity call (relative viability < 0.9)
Settings: 10 µM

Structure (SMILES) | cytotoxicity call
NC/C=C\C(=O)O | inactive
CNC(=O)CN1CCOC[C@@]2(C1)CN(Cc1ccn(C)n1)CCO2 | inactive
CCCC[C@@H](CC)COc1ccc(-c2nc(-c3ccc(OC)cc3)nc(-c3ccc(OC[C@@H](CC)CCCC)cc3O)n2)c(O)c1 | inactive
CN1CCc2cccc3c2C1Cc1ccc(O)c(O)c1-3.Cl (stereo not given) | active
C[C@H]1CN([C@@H](C)CO)C(=O)c2cc(C#CCN(C)C)cnc2O[C@H]1CN(C)Cc1ccc(C(=O)O)cc1 | inactive
C[C@@H]1CN([C@@H](C)CO)C(=O)c2cccc(NS(=O)(=O)c3cn(C)cn3)c2O[C@@H]1CN(C)Cc1ccccc1 | inactive
CCCCNc1ccc(C(=O)OCCN(C)C)cc1.Cl | active
Cc1noc(C)c1NC(=O)N(C)C[C@H]1Oc2ccc(NC(=O)Nc3ccc(C(F)(F)F)cc3)cc2CC(=O)N([C@@H](C)CO)C[C@H]1C | inactive
Cc1cc(O)c(C(C)C)cc1Cl | inactive
C[C@@H]1CCCCO[C@H](CN(C)C(=O)Nc2ccccc2)[C@H](C)CN([C@H](C)CO)C(=O)c2cc(NC(=O)Nc3ccc(C(F)(F)F)cc3)ccc2O1 | active
C[C@@H]1CCCCO[C@@H](CN(C)C(=O)C2CCCCC2)[C@H](C)CN([C@H](C)CO)C(=O)c2cc(NC(=O)CCC(F)(F)F)ccc2O1 | inactive
COc1ccc(CNC(=O)C[C@H]2CC[C@H]3[C@H](COc4ccc(NC(=O)C(C)C)cc4C(=O)N3C)O2)cc1 | inactive
CC1(C)SCN(S(=O)(=O)c2ccccc2)[C@@H]1C(=O)N[C@@H](CNC(=O)NCc1ccccc1)C(=O)O | inactive
C[C@@H]1CN([C@@H](C)CO)C(=O)c2cc(NC(=O)Nc3ccccc3)ccc2O[C@@H](C)CCCCO[C@H]1CN(C)Cc1ccc(C(=O)O)cc1 | inactive
NCCC[C@H](NC(=O)[C@@H]1CCCN1C(=O)[C@@H]1CSSC[C@H](N)C(=O)N[C@@H](Cc2ccc(O)cc2)C(=O)N[C@@H](Cc2ccccc2)C(=O)N[C@@H](CCC(N)=O)C(=O)N[C@@H](CC(N)=O)C(=O)N1)C(=O)NCC(N)=O | active
COc1cc(/C=C/C(=O)CC2=N/C(=N/Cc3ccc4c(c3)OCO4)S[C@H](c3ccc(O)c(OC)c3)C2)ccc1O | inactive
CN1CCN(C(=O)C[C@@H]2C=C[C@H](NC(=O)Nc3ccccc3F)[C@@H](CO)O2)CC1 | inactive
COc1ccc(S(=O)(=O)N(C)C[C@H]2Oc3ccc(NS(=O)(=O)c4cccs4)cc3CC(=O)N([C@H](C)CO)C[C@H]2C)cc1 | inactive
COc1cccc(C(=O)Nc2ccc3c(c2)C(=O)N(C)[C@@H]2CC[C@@H](CC(=O)NCC(F)(F)F)O[C@@H]2CO3)c1 | inactive
C[C@H]1CCCCO[C@@H](CN(C)Cc2ccc(C(=O)O)cc2)[C@@H](C)CN([C@@H](C)CO)C(=O)c2cc(NS(=O)(=O)c3ccc(F)cc3)ccc2O1 | inactive

Structure (SMILES) | cytotoxicity call
COc1ccc(CN(C)C[C@@H]2OCCCC[C@@H](C)Oc3ccc(NS(=O)(=O)c4c(C)noc4C)cc3C(=O)N([C@@H](C)CO)C[C@@H]2C)cc1 | inactive
O=C(C[C@H]1C[C@H]2c3cc(NS(=O)(=O)c4ccc(F)cc4)ccc3O[C@H]2[C@@H](CO)O1)N1CCCCC1 | inactive
Cc1cc(C(=O)Nc2cccc3c2O[C@@H](CN(C)Cc2ccccc2)[C@@H](C)CN([C@@H](C)CO)C3=O)n(C)n1 | inactive
Cc1noc(C)c1NC(=O)N(C)C[C@H]1Oc2ccc(NS(=O)(=O)c3ccccc3)cc2CC(=O)N([C@@H](C)CO)C[C@H]1C | inactive
C[C@@H]1CCCCO[C@@H](CN(C)C(=O)C2CCCCC2)[C@@H](C)CN([C@@H](C)CO)C(=O)c2cc(NC(=O)Nc3ccc(C(F)(F)F)cc3)ccc2O1 | inactive
COc1ccc(CN(C)C[C@@H]2OCCCC[C@H](C)Oc3ccc(NS(=O)(=O)c4ccc(F)cc4)cc3C(=O)N([C@@H](C)CO)C[C@H]2C)cc1 | inactive
C[C@H]1CN([C@@H](C)CO)C(=O)c2cc(NC(=O)Nc3ccc(F)cc3)ccc2O[C@H]1CN(C)Cc1ccc(C(=O)Nc2ccccc2N)cc1 | inactive
COC(=O)c1c2oc(c1C(=O)OC)C(=O)N[C@@H](Cc1ccccc1)Cn1cc(nn1)[C@@H](Cc1ccccc1)NC(=O)N[C@@H](COC(=O)NCCCCCC(=O)NO)CC2 | inactive
C[C@@H]1CN([C@H](C)CO)C(=O)c2cc(NC(=O)Nc3cccc4ccccc34)ccc2O[C@@H]1CN(C)Cc1ccccc1 | active
COc1ccc(NC(=O)Nc2ccc3c(c2)C(=O)N([C@H](C)CO)C[C@H](C)[C@@H](CN(C)S(=O)(=O)c2cccs2)OCCCC[C@@H](C)O3)cc1 | inactive
CC[C@H](C)[C@H]1O[C@]2(C=C[C@@H]1C)C[C@@H]1C[C@@H](C/C=C(\C)[C@@H](O[C@H]3C[C@H](OC)[C@@H](O[C@H]4C[C@H](OC)[C@@H](NC(C)=O)[C@H](C)O4)[C@H](C)O3)[C@@H](C)/C=C/C=C3\CO[C@@H]4[C@H](O)C(C)=C[C@@H](C(=O)O1)[C@]34O)O2 | active
COc1cccc(-c2cn(CC[C@H]3CC[C@H](NC(=O)CN(C)C)[C@@H](CO)O3)nn2)c1 | inactive
C[C@@H]1CN([C@@H](C)CO)C(=O)c2cc(C#CCN(C)C)cnc2O[C@@H]1CN(C)C(=O)CN1CCOCC1 | inactive
COc1ccc(cc1)CN1C[C@]2(CCN(CC2)S(=O)(=O)c2cn(cn2)C)c2c([nH]c3cc(ccc23)OC)[C@H]1CO | inactive
C[C@H](CO)N1C[C@H](C)[C@H](CN(C)C(=O)Cc2cccnc2)Oc2cc(C#Cc3ccccc3F)ccc2S1(=O)=O | inactive
Cc1noc(C)c1NC(=O)Nc1ccc2c(c1)C(=O)N([C@H](C)CO)C[C@H](C)[C@@H](CN(C)Cc1ccc(C(=O)O)cc1)OCCCC[C@@H](C)O2 | inactive
C[C@H]1CCCCO[C@H](CN(C)C(=O)Nc2ccc3c(c2)OCO3)[C@@H](C)CN([C@@H](C)CO)C(=O)c2cc(NC(=O)C3CCCCC3)ccc2O1 | inactive
C[C@H](CO)N1C[C@H](C)[C@H](CN(C)S(=O)(=O)c2cn(C)cn2)Oc2cc(C#Cc3ccc(F)cc3)ccc2S1(=O)=O | inactive
CCCCNC(=O)NS(=O)(=O)c1ccc(C)cc1 | inactive
Cc1ccc(S(=O)(=O)Nc2ccc3c(c2)C(=O)N([C@H](C)CO)C[C@H](C)[C@@H](CN(C)C(=O)Nc2ccc(F)cc2)OCCCC[C@H](C)O3)cc1 | active
